The target in the experiment is doppel (Prnd) recombinant protein immobilized on the SPR sensor chip. Kind of experiment: SPR, BIAcore T100, recombinant protein immobilized on chip.

B1: Human monoclonal antibody 3D5 (antibody, human IgG1, kappa, V domains shown)
VH: EVQLVESGGGLVQPGGSLRLSCAASGFTFSDYAMSWVRQAPGKGLEWVSRISSSGSSKYYADSVKGRFTISRDNSKNTLYLQMNSLRAEDTAVYYCAKWGSYGYGLVYYFDVWGQGTLVTVSS
VL: [sequence of about 100 residues not given]
In the case of B1, the Kd stood at 53.8 nM.
